Reference: PubChem BioAssay AID624202 (National Center for Advancing Translational Sciences (NCATS), 2012)
The whole screen tested about 380,000 compounds, of which about 4,000 (1.1%) were called active. This list was built around the results that the source calls inconclusive (neither active nor inactive); the mix of calls is not that of the screen. The call rests on the fitted dose curve; in most records, active means well fitted activation curve with a large enough effect; inconclusive means small, poorly fitted or top-dose-only effect; inactive means no such curve, though single readings can be large or run the other way. A potency beside an inconclusive call is a rough fit, not a confirmed value.

Test: qHTS Assay to Identify Small Molecule Activators of BRCA1 Expression; further: nearly all actives have a fitted effect of over 80% in size
Conditions: MCF7-BRCA1-FFLuc reporter, luminescence, 48 h; activation: at 46.1 µM (top of the series), scaled: vehicle 0%, 10 µM genistein 100% unless noted
Method in brief: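 Quantitative HTS in MCF7 cells stably reporting BRCA1 expression via firefly luciferase. Compound treatment lasts 48 h at 37 °C in phenol-red free MEM. Activation is expressed relative to genistein at 10 microM and DMSO.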
Potency means the concentration at half of the fitted maximal effect; tags describe the fitted curve by direction and shape.

| Structure (SMILES) | Potency | activation |
| --- | --- | --- |
| Fc1cc(F)c2nc(N3CCCC3)sc2c1 | inconclusive: 15.8 µM [activator, partial curve, poor fit] |  |
| Cc1nnc(SCC(=O)Nc2nsc(-c3ccc(C(C)(C)C)cc3)n2)s1 | active: 1.12 µM |  |
| CCc1ccc2c(CN3CCN(Cc4ccccc4)CC3)cc(=O)oc2c1 |  | inactive: -35.3% |
| O=C(NCCCn1cccn1)c1cc(COc2ccccc2)on1 | active: 11.2 µM |  |
| Cc1cc(C(=O)N/N=C/c2sccc2C)no1 |  | inactive: 46.6% |
| CCS(=O)(=O)c1ccc(C=NNc2nc3ccccc3o2)cc1 | inconclusive: 1.78 µM [activator, full curve, poor fit] |  |
| CCOC(=O)CSc1nc2cc3c(cc2cc1C#N)OCO3 | inconclusive: 2.82 µM [activator, partial curve, poor fit] |  |
| CCOc1ccc(N(CC(=O)Nc2ccc(C)cc2)S(C)(=O)=O)cc1 | active: 8.91 µM |  |
| Nc1ccc(-c2nnc(-c3ccc(-c4ccccc4)cc3)o2)cc1 | inconclusive: 14.1 µM [activator, partial curve, poor fit] |  |
| CN(C)c1ccc(C(CNC(=O)c2ccco2)N2CCCC2)cc1 (stereo unspecified) | inconclusive: 17.8 µM [activator, partial curve, poor fit] |  |
| Cc1ccccc1C(=O)NC1CC2CCCC(C1)N2Cc1ccc(Cl)cc1 (stereo unspecified) |  | inactive: -10.3% |
| Cc1ccc(-c2[nH]c(=S)[nH]c(=O)c2C#N)cc1 |  | inactive: -8.56% |
| O=C(N/N=C/c1ccc2ccccc2c1)c1ccc(COc2ccc3c(c2)CCC3)o1 | active: 2 µM |  |
| CCc1nc2ccc(C(=O)NCC3CCCCC3)cn2c1N(CCC(C)C)CCN(C)C |  | inactive: -65.2% |
| Cn1cc(-c2ccc(C(=O)Nc3cccc(Oc4ccccc4)c3)c3occc23)cn1 | active: 11.2 µM |  |
| CCCOc1ccc(-c2nnc(-c3ccncc3)o2)cc1 | inconclusive: 2.51 µM [activator, partial curve, poor fit] |  |
| CC(C)CCn1cnc2c(sc3nc4c(cc32)CSC(C)(C)C4)c1=O | inconclusive: 1.58 µM [activator, full curve, poor fit] |  |
| CCc1ccc(CN2CCN(c3ncccn3)CC2)cc1 |  | inactive: 52.5% |
| CC(C)(C)NC(=O)/C=C/c1ccc(C(F)(F)F)cc1 | inconclusive: 15.8 µM [activator, partial curve, poor fit] |  |
| c1ccc(Cn2ccc(-c3cnc(-c4ccccc4)s3)n2)cc1 |  | inconclusive: 56.1% [activator] |
| Cc1cc(NC(=O)c2ccccc2F)ncc1NC(=O)c1cccs1 | inconclusive: 15.8 µM [activator, partial curve, poor fit] |  |
| O=C(c1cc(-c2cccc(O)c2)on1)N1CCCCC1 | inconclusive: 3.16 µM [activator, partial curve, poor fit] |  |
| CCOc1ccc(-c2noc(-c3csc([C@@H]4C[C@H](O)[C@@H](CO)O4)n3)n2)cc1 | inconclusive: 8.91 µM [activator, partial curve, poor fit] |  |
| Cc1ccc(OCC(=O)Nc2ccccc2C(N)=O)cc1 | inconclusive: 2.82 µM [activator, full curve, poor fit] |  |
| O=C(c1ccc2c3n(nc2c1)-c1ccc(Cl)cc1CO3)N1CCCCC1 | inconclusive: 3.55 µM [activator, full curve, poor fit] |  |
| NNc1ccc(Cl)c(C(=O)O)c1 | active: 11.2 µM |  |

| Structure (SMILES) | Potency | activation |
| --- | --- | --- |
| Cc1ccc(C(=O)n2nc(C)c(S(=O)(=O)N3CCCCCC3)c2C)cc1 |  | inactive: 9.37% |
| CC(C)(C)OC(=O)N1CCC(c2nnc(SCc3ccccc3)o2)CC1 |  | inactive: -45% |
| O=C(Nc1cc(Cl)ncn1)c1ccccc1 | inconclusive: 11.2 µM [activator, partial curve, poor fit] |  |
| CCCSc1nsc(NC(=O)CCC)n1 | active: 1.41 µM |  |
| O=C1CC(c2ccc3c(c2)OCCO3)Oc2ccccc21 (stereo unspecified) | active: 11.2 µM |  |
| CCCC(=O)Nc1ccc(-c2nc3cc(C)c(C)cc3o2)cc1 | inconclusive: 0.631 µM [activator, full curve, poor fit] |  |
| CCOC(=O)CCS(=O)(=O)c1nc(-c2ccccc2)cc(C(F)(F)F)n1 |  | inactive: -93.1% |
| O=C(Nc1ccccc1)Nc1ccccc1 | inconclusive: 15.8 µM [activator, partial curve, poor fit] |  |
| Cc1ccc(-c2nc(Nc3ccc(O)cc3)c3ccccc3n2)cc1 |  | inactive: -90% |
| CCOc1cccc(-c2nc3cc(C)ccc3o2)c1 |  | inactive: 54% |
| CCCOC1CCCN(C(=O)c2cc(COc3ccc(F)c(F)c3)on2)C1 (stereo unspecified) | inconclusive: 17.8 µM [activator, partial curve, poor fit] |  |
| COc1ccc(C2CC(=O)c3cnc(NC(=O)c4ccccc4)nc3C2)cc1OC (stereo unspecified) |  | inactive: 0% |
| Cc1cccc(/N=C/c2sc3ccccc3c2O)n1 | inconclusive: 28.2 µM [activator, single point] |  |
| Cc1ccc(NC(=O)CC2CCCC2)c(Br)c1 | active: 12.6 µM |  |
| CCN(CCn1cccn1)C(=O)c1cc(COc2cc(C)ccc2C)on1 | active: 12.6 µM |  |
| O=C(N=Nc1c(O)[nH]c2ccccc12)c1ccc2c(c1)OCO2 | inconclusive: 2 µM [activator, partial curve, poor fit] |  |
| Cc1nc(-c2ccc3c(c2)OCO3)cs1 | inconclusive: 35.5 µM [activator, single point] |  |
| Cc1cnc(NC(=O)CSc2nnc(COc3ccccc3)o2)s1 |  | inactive: -17% |
| Cc1csc(NC(=O)c2cccs2)n1 | inconclusive: 10 µM [activator, partial curve, poor fit] |  |
| CNc1nn(-c2cccc(Cl)c2)nc1N | active: 10 µM |  |
| Cc1ccc(Cl)cc1NC(=O)c1cc(S(=O)(=O)N2CCCCCC2)cn1C |  | inactive: 6.32% |
| COC(=O)c1ccc(-c2ncc(-c3cccc4ccccc34)o2)cc1 | inconclusive: 2.51 µM [activator, full curve, poor fit] |  |
| COc1ccc(-c2nc(CS(=O)CC(=O)NCCC3=CCCCC3)c(C)o2)cc1 (stereo unspecified) | inconclusive: 28.2 µM [activator, single point] |  |
| O=C(Nc1ccc(F)cc1)c1ccccc1F | inconclusive: 12.6 µM [activator, partial curve, poor fit] |  |
| CC(C)(C)c1cc(NC(=O)COc2ccc(Br)cc2)n(-c2ccccc2)n1 |  | inactive: 32.2% |
| Cn1nnc2cc(C(=O)Nc3ccccc3F)ccc21 | inconclusive: 15.8 µM [activator, single point] |  |

| Structure (SMILES) | Potency | activation |
| --- | --- | --- |
| Cc1cc(C)c2nc(NC(=O)c3ccc(OCC4CCCO4)cc3)sc2c1 (stereo unspecified) | inconclusive: 31.6 µM [activator, single point] |  |
| Fc1cccc(-c2cc3nc4c(c(NCc5ccco5)n3n2)CCCC4)c1 | inconclusive: 17.8 µM [activator, partial curve, poor fit] |  |
| Cc1ccc(C(C)C)c(OC/C(O)=C(\C#N)c2nc3ccccc3[nH]2)c1 |  | inactive: -65.2% |
| O=c1c2ccccc2oc2cc(NCCCn3ccnc3)ccc12 | inconclusive: 2.24 µM [activator, full curve, poor fit] |  |
| Cc1cc(C(=O)N/N=C/c2cccc(Cl)c2Cl)no1 | inconclusive: 17.8 µM [activator, single point] |  |
| CCc1nnc(NC(=O)c2ccc(-c3ccc(Cl)cc3)o2)s1 | inconclusive: 35.5 µM [activator, single point] |  |
| Cc1nn(C(=O)c2ccc3c(c2)OCO3)c(N)c1-c1ccccc1 | inconclusive: 35.5 µM [activator, single point] |  |
| CCOC(=O)N1CCN(C(=O)c2cc(COc3cccc(C(F)(F)F)c3)on2)CC1 | inconclusive: 31.6 µM [activator, single point] |  |
| O=C(Cc1cccs1)Nc1nc2c(s1)CCCC2 | active: 3.98 µM |  |
| COCc1nnc(NC(=O)c2ccc3c(c2)OCO3)s1 | inconclusive: 3.55 µM [activator, partial curve, poor fit] |  |
| COc1ccc(-c2coc3cc(O[C@@H]4O[C@H](CO)[C@@H](O)[C@H](O)[C@H]4O)c(OC)cc3c2=O)cc1 | active: 11.2 µM |  |
| COc1cccc(/C=C/c2ccc3ccccc3n2)c1OC(C)=O |  | inconclusive: -40.7% [activator] |
| Cc1ccc2oc(Nc3nc(-c4ccccc4)cc(=O)[nH]3)nc2c1 | active: 3.55 µM |  |
| COc1ccccc1CNC(=O)COC(=O)c1ccc(C)c(S(=O)(=O)N2CCCCC2)c1 |  | inactive: -5.41% |
| Cn1cc(/C=C2\SC(=O)N(c3ccc(O)cc3)C2=O)c2ccccc21 | inconclusive: 12.6 µM [activator, partial curve, poor fit] |  |
| Oc1cc2cc(-c3csc(-c4ccc(F)cc4)n3)cc3c2n1CCC3 | active: 12.6 µM |  |
| CC(=O)Nc1ccc(C2=NOC(C)(C)C(=O)N2Cc2cccc(C#N)c2)cc1 |  | inactive: 15.1% |
| O=C1c2ccccc2NC(c2cc(Br)c3c(c2)OCO3)N1Cc1ccco1 (stereo unspecified) |  | inactive: -25.5% |
| CCOc1ccc(NC(=O)c2ccccc2SC)cc1 | inconclusive: 15.8 µM [activator, partial curve, poor fit] |  |
| CC(C)=C(NC(=O)c1ccccc1)C(=O)N1CCOCC1 |  | inactive: -1.43% |
| CCCC(=O)Nc1nc(-c2ccc3c(c2)OCCO3)cs1 | inconclusive: 1.26 µM [activator, full curve, poor fit] |  |
| S=C(NCCC1=CCCCC1)NCc1ccco1 | inconclusive: 20 µM [activator, partial curve, poor fit] |  |
| COc1ccc(NC(=O)Nc2ccc(C(C)C)cc2)cc1 | inconclusive: 7.94 µM [activator, partial curve, poor fit] |  |
| Cc1cc(NC(=O)c2ccc(Cl)cc2)cc(C)c1OCC(=O)N1CCOCC1 | inconclusive: 8.91 µM [activator, partial curve, poor fit] |  |
